Out of some 110,000 compounds screened, about 610 (0.55%) were called active. This list was built around the results that the source calls inconclusive (neither active nor inactive); the mix of calls is not that of the screen. The call rests on the fitted dose curve; in most records, active means well fitted inhibition curve with a large enough effect; inconclusive means small, poorly fitted or top-dose-only effect; inactive means no such curve, though single readings can be large or run the other way. Potencies beside an inconclusive call are fits to weak or partial responses and may not hold up.
Each compound was assayed against Polyunsaturated fatty acid lipoxygenase ALOX15B (Homo sapiens) (UniProt O15296) (assay: qHTS Assay for Inhibitors of 15-hLO-2 (15-human lipoxygenase 2)). Details: purified 15hLO-2, xylenol orange hydroperoxide absorbance; activity change, negative = inhibition: at 57.1 µM (top of the series) unless noted.
In short: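 Purified human 15hLO-2 (50 nM final) preincubated with compounds 15 min at room temperature in 25 mM Hepes pH 7.5, 0.01% Triton X-100, then 45 uM arachidonic acid added for 90 min; hydroperoxide detected via ferrous/xylenol orange, 573/405 nm absorbance ratio.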
Further: nearly all actives have a fitted effect of over 60% in size.
On the % scale 0 is the no-effect control and ±100 the full control effect; potency means the concentration at half of the fitted maximal effect; tags describe the fitted curve by direction and shape.

Chain of UniProt O15296 (O15296 whole entry, looked up): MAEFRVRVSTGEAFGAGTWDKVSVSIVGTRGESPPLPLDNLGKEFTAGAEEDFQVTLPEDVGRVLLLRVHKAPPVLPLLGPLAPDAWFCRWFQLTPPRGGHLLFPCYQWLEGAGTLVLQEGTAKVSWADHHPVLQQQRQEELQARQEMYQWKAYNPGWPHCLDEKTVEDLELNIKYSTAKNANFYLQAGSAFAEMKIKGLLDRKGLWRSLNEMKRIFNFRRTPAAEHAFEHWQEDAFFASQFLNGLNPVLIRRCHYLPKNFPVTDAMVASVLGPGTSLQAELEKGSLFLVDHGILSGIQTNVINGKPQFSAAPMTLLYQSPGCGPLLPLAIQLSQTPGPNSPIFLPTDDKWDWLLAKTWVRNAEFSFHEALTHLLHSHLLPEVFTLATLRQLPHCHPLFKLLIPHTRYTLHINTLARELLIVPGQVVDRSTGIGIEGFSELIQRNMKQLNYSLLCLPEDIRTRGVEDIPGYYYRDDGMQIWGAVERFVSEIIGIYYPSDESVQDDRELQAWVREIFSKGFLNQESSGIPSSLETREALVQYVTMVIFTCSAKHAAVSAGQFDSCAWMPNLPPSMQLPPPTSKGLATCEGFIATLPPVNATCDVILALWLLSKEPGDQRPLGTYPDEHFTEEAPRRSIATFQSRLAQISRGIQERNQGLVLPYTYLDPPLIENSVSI

SMILES	Potency	activity change, negative = inhibition
CCOc1ccc(Cn2c(SCCCCC#N)nc3c2c(=O)n(C)c(=O)n3C)cc1OCC	inconclusive: 20 µM [inhibitor, single point]	
CC(C)c1ccc(C2CC(=O)N3CN(Cc4ccco4)CSC3=C2C#N)cc1 (stereo unspecified)	inconclusive: 15.8 µM [inhibitor, partial curve]	
CC1=CC(C)(C)N2C(=O)C3(SCC(=O)N3c3ccc(O)cc3)c3cc(C)cc1c32 (stereo unspecified)	inconclusive: 31.6 µM [inhibitor, single point]	
CC1CCN(CCCNC(=O)c2coc3nc4ccccc4nc23)CC1		inactive: 14.2%
O=C(CSc1ncn(-c2ccccc2)n1)Nc1ccc(Br)cn1	inconclusive: 31.6 µM [inhibitor, single point]	
CC1CCCCN1C(=O)Nc1cccc(Cl)c1 (stereo unspecified)		inactive: -2.76%
CN1Cc2cc(C(=O)c3cc(Cl)cc(CSc4ncccn4)c3O)cnc2NC1=O		inactive: -4.18%
COc1ccc(C2c3c(-c4ccccc4O)n[nH]c3C(=O)N2CCc2ccc(OC)c(OC)c2)cc1 (stereo unspecified)	inconclusive: 20 µM [inhibitor, single point]	
Cc1ccc(/C=C2\SC(=S)N(Cc3ccccc3)C2=O)o1	inconclusive: 20 µM [inhibitor, partial curve]	
COC(=O)c1c(NC(=O)c2ccco2)sc(C)c1C		inactive: 1.5%
CCOC(=O)CN1NC2(CCC(C(C)(C)C)CC2)NC1=S (stereo unspecified)	inconclusive: 7.94 µM [inhibitor, partial curve]	
CCn1c(SCC(=O)Nc2nnc(C)s2)nnc1-c1ccncc1		inactive: 2.77%
COc1ccc(Nc2nnc(SCc3cc(=O)n4ccsc4n3)s2)cc1	inconclusive: 39.8 µM [inhibitor, single point]	
CC1CC2C3CCC4=CC(=O)C=C[C@]4(C)[C@@]3(Cl)C(O)C[C@]2(C)C1(OC(=O)c1ccco1)C(=O)CCl (stereo partly specified)	inconclusive: 25.1 µM [inhibitor, single point]	
Cn1nc(-c2ccc(OCC(=O)Nc3ccccc3)cc2)c2ccccc2c1=O		inactive: -10.4%
CCCC(=O)c1c(NC(C)C)cc(C)oc1=O		inactive: -0.106%
COC(=O)c1ccc(CSc2nc3scc(-c4cccs4)c3c(=O)[nH]2)o1	inconclusive: 31.6 µM [inhibitor, single point]	
O=C(Cc1nc(-c2ccc([N+](=O)[O-])cc2)cs1)Nc1ccccc1	inconclusive: 5.01 µM [inhibitor, partial curve]	
COc1ccc(S(=O)(=O)N2c3ccc(Cl)cc3[C@](O)(c3ccccc3Cl)[C@@H]2C(=O)N2CCC[C@H]2C(N)=O)cc1OC		inactive: 19.1%
Cn1c(=O)c(C(=O)COC(=O)c2cc(-c3ccco3)nc3ccccc23)c(N)n(CC2CC2)c1=O	inconclusive: 20 µM [inhibitor, single point]	
CSc1cccc(NC(=O)Cn2cccc2)c1	inconclusive: 25.1 µM [inhibitor, single point]	
Cc1ccccc1C1CC(=O)Oc2cc(C)c(Br)c(C)c21 (stereo unspecified)		inactive: -5.29% [at 0.0915 µM]

SMILES	Potency	activity change, negative = inhibition
Cc1ccn2cc(CSc3ccccc3)nc2c1		inactive: 25.3%
CC1=NN(c2ccc(F)cc2)C(=O)C1C(c1cccc(O)c1)c1c(C)[nH]n(-c2ccc(F)cc2)c1=O (stereo unspecified)	inconclusive: 12.6 µM [inhibitor, partial curve, poor fit]	
Cc1cc2oc(=O)cc(-c3ccccc3)c2c(C)c1-c1sccc1C=O	inconclusive: 35.5 µM [inhibitor, single point]	
O=C(c1ccncc1)N1CCC2(CCCN(c3ccccn3)C2)CC1		inactive: 2.34%
CCc1ccc(/C=C/C(=O)c2cc(Br)ccc(=O)c2O)cc1	inconclusive: 39.8 µM [inhibitor, single point]	
S=c1[nH]nc(COc2ccccc2)n1/N=C/c1ccc(Br)s1	inconclusive: 12.6 µM [inhibitor, partial curve]	
COc1cc2c(O)c3c(c(-c4ccc5c(c4)OCO5)c2cc1OC)C(=O)OC3	inconclusive: 12.6 µM [inhibitor, partial curve]	
CCOC(=O)c1c(NC(C)=O)sc2c1CCC(C=O)=C2Sc1ccccc1	inconclusive: 20 µM [inhibitor, partial curve]	
O=C(CN1CCCC1)N1c2ccccc2Sc2ccccc21	inconclusive: 15.8 µM [inhibitor, partial curve, poor fit]	
CCOC(=O)C1CCCN(c2ccc(NC(=O)c3snc4c(=O)[nH]cnc34)cc2)C1 (stereo unspecified)	inconclusive: 39.8 µM [inhibitor, single point]	
COC(=O)c1cc(NC(=O)c2ccc(Cn3cc(Cl)cn3)o2)cc(C(=O)OC)c1	inconclusive: 39.8 µM [inhibitor, single point]	
Cc1ccc(-c2n[nH]c(=S)n2/N=C/C=C/c2ccccc2[N+](=O)[O-])cc1	active: 12.6 µM	
O=C(CSc1nnc2c3ccccc3c3ccccc3c2n1)Nc1ccccc1F	inconclusive: 12.6 µM [inhibitor, partial curve]	
Cc1nc2c(C#N)c(C)[nH]n2c(=O)c1Cc1ccccc1	inconclusive: 0.199 µM [inhibitor, full curve]	
O=C(CSCc1ccco1)c1ccc(Cl)s1	inconclusive: 15.8 µM [inhibitor, partial curve]	
Cc1ccc2c(c1)-c1c(ssc1=S)C(C)(C)N2C(=O)CSc1nncn1C	inconclusive: 25.1 µM [inhibitor, partial curve]	
O=C(CSc1n[nH]c(-c2ccco2)n1)N1c2ccccc2Sc2ccccc21	inconclusive: 20 µM [inhibitor, partial curve]	
CC(c1ccccc1)C1CC(=O)N(Cc2ccco2)C1=O (stereo unspecified)	inconclusive: 39.8 µM [inhibitor, single point]	
Fc1ccc(-c2nc3n(c2-c2ccncc2)CCS3)cc1	inconclusive: 10 µM [inhibitor, partial curve]	
CCOc1ccc(N2CSC3=C(C#N)C(c4ccco4)CC(=O)N3C2)cc1 (stereo unspecified)	inconclusive: 25.1 µM [inhibitor, single point]	
O=S1(=O)c2ccccc2N=NN1Cc1ccc(Cl)cc1	inconclusive: 0.794 µM [inhibitor, full curve, poor fit]	
COc1ccc(-n2c(SCC(=O)Nc3ccccc3)nnc2-c2ccc(NS(=O)(=O)c3ccc(C)cc3)cc2)cc1	inconclusive: 20 µM [inhibitor, partial curve]	

SMILES	Potency	activity change, negative = inhibition
CS(=O)(=O)N1CCC2(CCN(Cc3nccs3)CC2)CC1		inactive: 3.98%
CCCn1c(CCC(=O)O)ccc1-c1ccc(OC)cc1	inconclusive: 20 µM [inhibitor, single point]	
CN(C(=S)NC(=O)c1ccccc1Br)C1CCCCC1	inconclusive: 25.1 µM [inhibitor, single point]	
COc1ccccc1N1C(=O)c2cccc3c(C(=O)O)ccc(c23)C1=O		inactive: 3.1%
Cc1cccc(OCC(=O)N/N=C/c2cn[nH]c2-c2ccc(Cl)c(Cl)c2)c1	inconclusive: 10 µM [inhibitor, partial curve]	
CCc1ccccc1NC(=O)c1nnn(CC(=O)Nc2cccc(C)c2C)c1N	inconclusive: 31.6 µM [inhibitor, single point]	
COC(=O)c1ccc(C(=O)Nc2cc(Cl)ccc2Cl)cc1NC(=O)c1ccc(N(C)C)cc1	inconclusive: 25.1 µM [inhibitor, single point]	
S=c1nc(-c2ccccc2)[nH]n1-c1ccccc1	inconclusive: 25.1 µM [inhibitor, single point]	
CCOC(=O)c1c(NC(=O)CSc2nnnn2-c2ccc(OC)cc2)sc(C)c1C	inconclusive: 12.6 µM [inhibitor, partial curve]	
CC1(C)Cc2nc3sc4c(SCC(=O)NC(c5ccccc5)c5ccccc5)ncnc4c3cc2CO1	inconclusive: 7.94 µM [inhibitor, full curve]	
O=C1OC(c2ccccc2)=C/C1=C\N1CCOCC1	inconclusive: 10 µM [inhibitor, partial curve]	
CCn1c2ccccc2c2nnc(SCC(=O)Nc3c(C)n(C)n(-c4ccccc4)c3=O)nc21		inactive: -3%
c1ccc2[nH]c(CN3CCN(c4ncnc5c4oc4ccccc45)CC3)nc2c1		inactive: 50.2%
COc1ccc(-c2nc3oc4cc(OC)ccc4c(=O)c3c(=O)n2Cc2ccco2)cc1	inconclusive: 20 µM [inhibitor, single point]	
CCCCN(C)c1nc(-c2ccco2)c2c(c1C#N)CC(C)(C)OC2	inconclusive: 25.1 µM [inhibitor, single point]	
S=c1[nH]nc(COc2ccccc2)n1/N=C/C(Cl)=C/c1ccccc1	inconclusive: 12.6 µM [inhibitor, partial curve]	
COC(=O)[C@@]1(Cc2ccc(F)cc2)[C@H]2c3cc(C(=O)N(C)C)n(CCc4ccc(O)c(O)c4)c3C[C@H]2CN1C(=O)c1ccccc1	inconclusive: 10 µM [inhibitor, partial curve]	
CCCCCNC1=CC(=O)CC(c2ccccc2)C1 (stereo unspecified)		inactive: -7.08%
Cc1cc(C#N)c(C)n1-c1cc(S(=O)(=O)N2CCOCC2)ccc1N1CCCC1	inconclusive: 15.8 µM [inhibitor, partial curve]	
Nc1scc2c(C(=O)N/N=C/c3ccc(Cl)cc3)nn(-c3ccccc3)c(=O)c12	inconclusive: 3.16 µM [inhibitor, full curve]	
CCOc1ccc2nc(N/C(N)=N/C(=S)Nc3cccc(C)c3)nc(C)c2c1	inconclusive: 39.8 µM [inhibitor, single point]	
COc1ccc2c(c1)cc(C)c1nnc(SCC(=O)N(C)c3nc(-c4ccccc4)cs3)n12	inconclusive: 25.1 µM [inhibitor, single point]	
